# Data taken from PubChem BioAssay AID504832 (National Center for Advancing Translational Sciences (NCATS), 2011).
# Among all 310,000 compounds or so, about 18,000 (5.8%) were called active. This list was built around the results that the source calls inconclusive (neither active nor inactive); the mix of calls is not that of the screen. Calls come from the whole dose curve; as a rule, active = well fitted inhibition curve with a large enough effect; inconclusive = small, poorly fitted or top-dose-only effect, or another doubt; inactive = no such curve, though single readings can be large or run the other way. Potencies of inconclusive entries are left out as doubtful fits.
# Assay: Primary qHTS for delayed death inhibitors of the malarial parasite plastid, 48 hour incubation
# Settings: P. falciparum luciferase growth in erythrocytes; series mostly up to 28.7 µM; activity change, negative = inhibition: at the top concentration
# Outline: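 Compounds are pin-transferred into medium, infected erythrocytes (2% hematocrit, 0.1% parasitemia final) are added, and plates sit one parasite generation at 37 C in 5% CO2. Detection reagent is then added and luminescence measured.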
# % is set by controls: 0 for no effect and ±100 for the full control effect; potency is the fitted concentration of half-maximal effect; tags give direction and shape of the fitted curve.
SMILES,"activity change, negative = inhibition",Potency
O=C(Oc1cccc([N+](=O)[O-])c1)c1ccc2c(=O)n3c(nc2c1)CCC3,inactive: -16.8%,–
CN(C)S(=O)(=O)c1ccc(N2CCCC2)c(C(=O)NCC(=O)Nc2ccc(F)c(F)c2)c1,–,"inconclusive [inhibitor, single point]"
COc1ccccc1CNC(=O)c1ccc(Cl)c(NC2=NC3CS(=O)(=O)CC3S2)c1 (centres undefined),inactive: -0.415%,–
COc1ccc(-n2c(SCC(=O)OC(C)C)nnc2-c2ccccn2)cc1,inactive: 1.41%,–
O=C(COC(=O)c1ccccc1SCC(=O)N1CCCC1)NCc1ccccc1,–,"inconclusive [inhibitor, single point]"
COc1cccc(N2CCN(C(=O)c3ccc4ccccc4c3)CC2)c1,inactive: 45.4%,–
CCC(NC(=O)C1CCCO1)c1ccccc1 (centres undefined),inactive: 29.3%,–
CCCCn1c(N)c(N(CCOC)C(=O)C2CCN(S(=O)(=O)c3ccc(F)cc3)CC2)c(=O)[nH]c1=O,inactive: -5.3%,–
c1ccc2c(-c3cn4ccccc4n3)c[nH]c2c1,–,"inconclusive [inhibitor, partial curve, poor fit]"
CCC(=O)NC(c1cccs1)c1ccc2cccnc2c1O (centres undefined),–,active: 2.33 µM
CCCn1c(CN2CCN(C(=O)OCC)CC2)nc2cc(NC(=O)C(C)C)ccc21,–,"inconclusive [inhibitor, partial curve]"
Cc1nc2ccc(NC(=O)C3CCCCC3)cc2s1,–,"inconclusive [inhibitor, single point]"
COc1cc(/C=C/C(=O)Nc2ccccc2C(F)(F)F)cc(OC)c1OC,–,"inconclusive [inhibitor, partial curve]"
O=C(Cn1[nH]c(=O)c2ccccc2c1=O)NCC1COc2ccccc2O1 (centres undefined),–,"inconclusive [inhibitor, single point]"
Cc1ccc(COc2cccc3c2CCN(Cc2ccc(F)cc2)C3=O)cc1,–,"inconclusive [inhibitor, single point]"
COc1ccc(-c2onc(C)c2-c2cscn2)c(O)c1,–,"inconclusive [inhibitor, single point]"
CCC(=O)Nc1ccc(Nc2nc(C)c([N+](=O)[O-])c(Nc3ccc(NC(=O)CC)cc3)n2)cc1,–,"inconclusive [inhibitor, single point]"
Cc1cc(OCC(=O)NNC(=O)c2ccncc2)ccc1C(C)C,–,"inconclusive [inhibitor, partial curve, poor fit]"
CN1CCC(CN)(N2CCN(c3ccccc3)CC2)CC1,–,"inconclusive [inhibitor, single point]"
Cc1cc(NC(=O)CSc2ccc3nnc(-c4ccccc4)n3n2)no1,–,active: 2.62 µM
CN(c1ccccc1)S(=O)(=O)c1cccc2ccccc12,inactive: -8.69%,–
Cc1cccc(C)c1Nc1nc2ccccc2o1,–,"inconclusive [inhibitor, partial curve, poor fit]"

SMILES,"activity change, negative = inhibition",Potency
COc1ccc(C(C(=O)NC2CCCCC2)N(C(=O)c2cccs2)c2ccc3c(c2)OCO3)cc1 (centres undefined),–,"inconclusive [inhibitor, partial curve, poor fit]"
COc1ccc(Br)cc1C1Nc2ccccc2C(=O)N1NC(=O)c1ccncc1 (centres undefined),–,"inconclusive [inhibitor, partial curve, poor fit]"
O=C(N=Nc1c(O)[nH]c2ccc(Br)cc12)c1cc(-c2cccs2)nc2ccccc12,inactive: -0.568%,–
Cc1c(CCOC(=O)c2cc([N+](=O)[O-])cc([N+](=O)[O-])c2)sc[n+]1CC(=O)c1ccc(Br)cc1,–,"inconclusive [inhibitor, full curve, poor fit]"
N#C/C(=N\Nc1cccc(F)c1)C(=O)C1CC1,–,"inconclusive [inhibitor, full curve, poor fit]"
O=C(CNc1cccc(C(F)(F)F)c1)N/N=C/c1ccccc1C(=O)O,–,"inconclusive [inhibitor, partial curve, poor fit]"
Cc1cccc(-c2nnc(SC(C)C(=O)N3CCOCC3)o2)c1 (centres undefined),inactive: -17.4%,–
COc1ccccc1NS(=O)(=O)c1cc(C(=O)NCCC(C)C)ccc1F,inactive: -22.3%,–
CCOc1ccc(-c2nnn(CC(=O)Nc3cc(OC)ccc3OC)n2)cc1OCC,–,"inconclusive [inhibitor, single point]"
CC(C)(C)C1COc2ccccc2N1C(=O)c1cccc(Cl)c1 (centres undefined),–,"inconclusive [inhibitor, single point]"
COCCN(C(=O)COC(=O)CCSc1ccc(F)cc1)c1c(N)n(Cc2ccccc2)c(=O)[nH]c1=O,–,"inconclusive [inhibitor, partial curve]"
CCOC(=O)c1c(/C=N/Nc2ccccc2)c2sc(C)cc2n1C,–,active: 9.28 µM
Cc1sc2ncnc(N3CCC(C(=O)NNC(=O)c4ccccc4Cl)CC3)c2c1C,–,"inconclusive [inhibitor, partial curve]"
O=C(CSc1nnnn1-c1ccccc1)NCC1(N2CCCCC2)CCCCC1,–,"inconclusive [inhibitor, partial curve, poor fit]"
NS(=O)(=O)c1ccc(Nc2ccc([N+](=O)[O-])c3nonc23)cc1,–,"inconclusive [inhibitor, single point]"
O=C(NCc1ccccc1)c1ccc(F)c(F)c1,inactive: 4.54%,–
Cn1c(=O)c2c(nc(SCCOc3ccc4ccc(=O)oc4c3)n2C)n(C)c1=O,inactive: 8.81%,–
Cc1nc(NC(=O)C2CC2)sc1C(=O)Nc1cccc(Cl)c1,–,"inconclusive [inhibitor, partial curve, poor fit]"
CCc1ccc(NC2=NCC(c3ccccc3)S2)cc1 (centres undefined),–,"inconclusive [inhibitor, single point]"
O=C(NCCCNCCCNC(=O)c1ccc(/C=N/O)nc1)c1ccc(/C=N/O)nc1,–,active: 9.28 µM
O=C(Nc1ccc(S(=O)(=O)N2CCCCC2c2cccnc2)cc1)c1ccccc1F (centres undefined),–,"inconclusive [inhibitor, partial curve, poor fit]"
Cc1ccc(CNC(=O)C2CCCN(S(=O)(=O)c3c(C)noc3/C=C/N(C)C)C2)cc1 (centres undefined),–,active: 13.1 µM
